Assay results as given in patent US20180148514A1, “MULTIVALENT MEDITOPES, MEDITOPE-BINDING ANTIBODIES AND USES THEREOF” (City of Hope, priority 2014, published 2018).

Experiments:
[1] = system: HL-60 cells; test: pHrodo-labeled antibody internalization, fluorescence microscopy, HL-60; format: cell-based, human; conditions: 100 nM antibody with or without 100 nM meditope-Fc, 30 minutes, 37° C., n=9
Experimental: Meditope-enabled gemtuzumab antibodies were labeled with pHrodo™ Red SE (ThermoFisher Scientific, Waltham, Mass.) according to manufacturer's instructions. The pHrodo™ dye is pH sensitive; its fluorescence increases as pH decreases. Thus, quantifying the fluorescence of pHrodo™-labeled antibodies indicates the rates of antibody endocytosis. Briefly, pHrodo™ was prepared in dry dimethylsulfoxide (DMSO) (Invitrogen) to achieve a final concentration of 2-5 μM of dye. 2 mg of antibody was dissolved in 2 mL of phosphate buffered saline (PBS) at pH 9. Fluorescent probe was then added slowly in four 50 ul increments to the antibody solution and incubated with each addition for 15 minutes with rocking at room temperature. […]
HL-60 cells, a human promyelocytic leukemia cell line were stained for fluorescence microscopy to determine receptor-mediated endocytosis rates of the pHrodo™-labeled antibody. […]
At the appropriate time points, coverslips were washed in ice-cold BSA/PBS before fixation in 4% paraformaldehyde (PFA). […] Z sectioning permitted visualization of the internalized materials and all quantitative measurements were taken at the same defined section height. Total fluorescence of each stain inside and outside of imaged cells (n=9) were calculated using ImageJ analysis at a single time point of 30 minutes. Total staining for gemtuzumab alone was calculated as 6604.57±463.95.

[2] = system: MDA-MB-468 cells; test: FACS binding of meditopes to MDA-MB-468 cells pre-treated with cetuximab or M425; format: cell-based
[3] = system: MDA-MB-468 cells; test: Confocal/fluorescent microscopy of cetuximab with MFC or M4FC; format: cell-based; conditions: co-incubated with cetuximab
[4] = M4FC storage stability; format: physicochemical; conditions: 4° C.
Experimental: For long-term storage, the protein was flash-frozen in small aliquots and stored at −80° C. Thawed M4FC was re-sized to remove aggregates.

[5] = system: HER2-paGFP in MDA-MB-468 cells; test: PC-PALM super-resolution imaging of HER2-paGFP distribution; format: cell-based; conditions: 10 nM meditope-enabled Trastuzumab v2.0 10 min
[6] = system: cell surface antigen; test: Binding of tetravalent meditope-Fc via meditope enabled antibody bound to cell surface antigen; format: cell-based
Description: In some embodiments, each or one or more of the above tetravalent and bivalent constructs are shown to bind, e.g., with high affinity via meditope enabled antibody bound to cell surface antigen.

[7] = system: cetuximab IgG; test: SPR binding kinetics of monovalent and tetravalent meditopes to cetuximab; conditions: avidin saturated with biotinylated meditope passed over immobilized cetuximab IgG, versus monovalent meditope
Description: The panel above the surface plasmon resonance traces depicts a cartoon of the monovalent meditopes being passed over the bivalent IgG. […] The off-rate of the multivalent meditope was reduced by at least 36 fold. (Note the time scales between the two experiments are different.)
In one embodiment, the multivalent meditope tethering entity is a tetravalent meditope tethering agent. In one aspect, the tetrameric tethering entity is shown by surface plasmon resonance to have enhanced binding to an antibody as compared to the monovalent peptide, which is consistent with a multivalent interaction. […] Such binding affinities can be determined using well-known methods, e.g., by FACS analysis.

B1: gemtuzumab: Meditope-enabled gemtuzumab, light chain SEQ ID NO: 224, heavy chain SEQ ID NO: 225, pHrodo Red labeled (protein)
light: QIVLTQSPAIMSASPGEKVTITCSASSSISYMHWFQQRTNGSPRLWIYTTSNLASGVPARFSGSGSGTSYSLTISRMEAEDEADYYCHQRSTYPLTFGAGTKLELKRTVAAPSVFIFPPSDEQLKSGTASVVCLLNNFYPREAKVQWKVDNALQSGNSQESVTEQDSKDSTYSLSSTLTLSKADYEKHKVYACEVTHQGLSSPVTKSFNRGEC
heavy: QVQLQQSGAELAKPGASVKMSCKASGYTFTSYRMHWVKQSPGQGLEWIGYINPSTGYTEYNQKFKDKATLTADKSSSTAYMQLSSLTFEDSAIYYCARGGGVFDYWGQGTTLTVSS[human IgG1 constant region not written out]
modifications: pHrodo Red label; (1)..(213) MB-004-107 Gemtuzumab enabled antibody, light chain; (1)..(446) MB-004-107 Gemtuzumab enabled antibody, heavy chain
[1]
  total staining (total fluorescence, ImageJ): 6604.57±463.95

B2: meditope-Fc: meditope fused to N-terminus of human IgG Fc via 37-residue linker; bivalent; SEQ ID NO: 57 (protein)
chain: GCQFDLSTRRLRCGGSRSGGTSGGGSVPGSGSSGSTSGSGKSSEGSGQ[human IgG1 Fc and a few adjoining residues not written out]
[2]; cetuximab pre-treated MDA-MB-468 cells, after wash
  binding signal after washing (FACS): remained bound despite an extensive washing procedure
[2]; with or without cetuximab or M425 pre-treatment
  binding to cells (FACS): did not bind to untreated cells or cells pre-treated with M425
[3]
  persistence of meditope signal in cells: observed even following overnight incubation

B3: M4FC: tetravalent meditope-Fc having the amino acid sequence of SEQ ID NO: 58 (protein)
chain: GCQFDLSTRRLRCGGSRSGGTSGTGSTSGSGSSGSTSGSGKSSEGSGQAS[human IgG1 Fc and a few adjoining residues not written out]GGSRSGGTSSSSSGSGSGSSGSTSGSGSSGCQFDLSTRRLRCG
[4]
  storage stability: stable at 4 °C at most for one month
[5]; then 10 nM M4Fc for 3 minutes
  HER2-paGFP density: 196±41 molecules/μm^2
[5]; then 10 nM M4Fc for 10 minutes
  HER2-paGFP density: 41±8 molecules/μm^2
[6]
  binding: bind with high affinity
[3]
  incubation time after which meditope became barely detectable: more than 3.5 h
[3]; as early as
  time at which internalization was observed: 20 min

B4: tetravalent meditope: avidin saturated with biotinylated meditope (FIG. 4) (conjugate)
chain: GCQFDLSTRRLRCGGSRSGGTSGTGSTSGSGSSGSTSGSGKSSEGSGQAS[human IgG1 Fc and a few adjoining residues not written out]GGSRSGGTSSSSSGSGSGSSGSTSGSGSSGCQFDLSTRRLRCG
[7]
  off-rate reduction of the multivalent meditope: at least 36 fold
